In all, about 310,000 compounds went through this assay and about 14,000 (4.5%) showed an effect of 50% or more. The effect is printed as a negative number. This is one part of the list.
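Further: peak tail current of the secondary pulse compared with the same well before compound.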

human ether-à-go-go-related gene (hERG) potassium channel, sequence (Q12809 whole entry, looked up): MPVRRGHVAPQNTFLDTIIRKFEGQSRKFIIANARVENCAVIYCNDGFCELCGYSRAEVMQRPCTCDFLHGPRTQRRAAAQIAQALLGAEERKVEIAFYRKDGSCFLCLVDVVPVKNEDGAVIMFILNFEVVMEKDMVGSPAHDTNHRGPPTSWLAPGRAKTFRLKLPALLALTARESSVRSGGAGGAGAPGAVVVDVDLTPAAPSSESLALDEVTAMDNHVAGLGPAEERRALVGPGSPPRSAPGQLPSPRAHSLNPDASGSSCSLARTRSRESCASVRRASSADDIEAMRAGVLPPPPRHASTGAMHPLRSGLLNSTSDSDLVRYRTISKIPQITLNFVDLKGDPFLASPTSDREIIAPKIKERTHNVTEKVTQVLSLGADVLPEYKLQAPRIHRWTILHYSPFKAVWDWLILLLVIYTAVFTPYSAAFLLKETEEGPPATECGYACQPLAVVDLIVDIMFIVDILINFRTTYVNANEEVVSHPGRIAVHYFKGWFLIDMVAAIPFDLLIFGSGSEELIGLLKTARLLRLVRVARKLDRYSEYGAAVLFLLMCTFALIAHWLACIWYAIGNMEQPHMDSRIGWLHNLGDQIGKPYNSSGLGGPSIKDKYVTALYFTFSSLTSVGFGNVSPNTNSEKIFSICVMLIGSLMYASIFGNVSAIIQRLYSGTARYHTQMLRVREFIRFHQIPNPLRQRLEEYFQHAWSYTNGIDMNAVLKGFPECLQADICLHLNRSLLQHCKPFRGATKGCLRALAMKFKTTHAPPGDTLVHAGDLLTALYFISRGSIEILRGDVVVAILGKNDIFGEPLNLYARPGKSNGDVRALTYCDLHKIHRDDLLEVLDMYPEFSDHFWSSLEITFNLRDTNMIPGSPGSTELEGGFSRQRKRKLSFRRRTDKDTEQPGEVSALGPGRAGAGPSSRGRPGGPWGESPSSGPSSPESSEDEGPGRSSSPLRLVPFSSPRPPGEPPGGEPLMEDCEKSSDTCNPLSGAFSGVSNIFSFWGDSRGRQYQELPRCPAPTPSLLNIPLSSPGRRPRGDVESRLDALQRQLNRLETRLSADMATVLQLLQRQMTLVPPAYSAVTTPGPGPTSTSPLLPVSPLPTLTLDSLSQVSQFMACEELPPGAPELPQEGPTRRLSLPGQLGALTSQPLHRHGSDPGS

The experiment concerns the target human ether-à-go-go-related gene (hERG) potassium channel (human, UniProt Q12809). The experiment in a line: primary screen, population patch clamp on CHO cells stably expressing hERG.
With `CCc1cc(=O)oc2cc(OCC(=O)N3CCCc4ccccc43)ccc12`, the “hERG current change (%, negative = inhibition) at 10uM” value is given as -5.03%.
Take `CC(C)(C)C(=O)COC(=O)c1cccc(NC(=O)c2ccco2)c1`: the “hERG current change (%, negative = inhibition) at 10uM” value came to 9.16%.
Then `CN(Cc1ccccc1)C(=O)COc1cccnc1[N+](=O)[O-]`, with 14.2%; and `O=C(Nc1nccs1)c1c(O)c2c([nH]c1=O)CCCC2`, with 1.04%.
Then `Cc1onc(-c2ccccc2)c1C(=O)NCCc1c[nH]c2ccccc12`, with -27.8%; and `O=C1NC2=C(C(=O)CCC2)C(c2ccccc2[N+](=O)[O-])N1` (centres unmarked), with 17.9%.
With `O=C(NCC(O)c1ccccc1)c1ccc(Cl)c(S(=O)(=O)N2CCCCC2)c1` (centres unmarked), the “hERG current change (%, negative = inhibition) at 10uM” value is 8.95%.
In the case of `C/C(=N\NC(=O)c1ccccc1O)c1ccc(NC(=O)Cc2ccccc2)cc1` it was -4.54%; in that of `COc1ccc(NC2CCCN(C(=O)c3ccc(C(C)=O)cc3)C2)cc1` (centres unmarked), -1.79%.
In the case of `CC(C)N1CCN(c2ccc(O)cc2)CC1` it was 1.51%.
In the case of `CC(=O)Nc1ccc(OC(=O)c2cc3cc(Br)ccc3oc2=O)cc1` it was 17.6%; in that of `CC(C)OC(=O)CSc1nnc(CNc2cccc(Cl)c2)n1C`, -3.57%; in that of `COc1cc(C)c(NC(=O)COc2cccc3c2OC(C)(C)C3)cc1OC`, -7.8%.
As to `Nc1ccc(Oc2ccc3c(c2)C(=O)NC3=O)cc1`, the “hERG current change (%, negative = inhibition) at 10uM” value stood at 2.73%.
In the case of `COc1ccc(CCN(C)C(=O)C2CCN(C(=O)Nc3ccccc3)CC2)cc1OC` it was -4.34%; in that of `CC(C)(C)NS(=O)(=O)c1ccc(Oc2ncc(C(F)(F)F)cc2Cl)cc1`, 15.3%; in that of `O=C(O)CCN1C(=O)CC(N2C(=O)/C(=C/c3ccc(Cl)cc3)SC2=S)C1=O` (centres unmarked), 18.8%.
In the case of `CN(C)CCCNC(=O)c1cc(Br)ccc1Cl` it was 0.95%; in that of `Cc1ccc(O)c(C(=O)c2cnc3c(c2)c(C)nn3C)c1`, 10.2%; in that of `O=C(NCCc1ccccc1)C1CCN(S(=O)(=O)c2cccc3nsnc23)CC1`, 5.65%.
Then `Cc1noc(C)c1S(=O)(=O)N1CCCC(C(=O)NCc2ccccc2Cl)C1` (centres unmarked), with 16.8%; and `Cc1cc(C(=O)CN2C(=O)c3ccccc3S2(=O)=O)c(C)n1CC1CCCO1` (centres unmarked), with -9.85%; and `CC(CN1CCOCC1)OC(=O)c1cccs1.Cl` (centres unmarked), with 9.51%.
For the molecule `COc1ccc(OCc2cc(C(=O)N3CCC(OC)CC3)no2)c2ccccc12`, the “hERG current change (%, negative = inhibition) at 10uM” value was found to be 14.4%.
In the case of `CCCCOC(=O)C1=C(C)Nc2ncnn2C1c1cc(OC)c(OC)cc1OC` (centres unmarked) it was -12%.
In the case of `Cc1ccn2c(C=O)c(-c3ccc(F)cc3)c(C=O)c2c1` it was -12.9%.
In the case of `COc1ccc(/C=C/C(=O)Nc2ccc(S(=O)(=O)Nc3cc(C)nc(C)n3)cc2)cc1OC`, the “hERG current change (%, negative = inhibition) at 10uM” value is reported as -7.85%.
`Cc1cc(NC(=O)COC(=O)c2ccc(F)c(S(=O)(=O)N3CCOCC3)c2)no1`: the “hERG current change (%, negative = inhibition) at 10uM” value is on record as -13.4%.
Then `CN(C)CCN(Cc1ccccc1)c1ccnc(N(C)C)c1C#N`, with -26.7%; and `CCOC(=O)CCc1c(C)c2ccc(OCC)c(C)c2oc1=O`, with -8.3%.
Then `O=C(CSc1nnc(-c2ccccc2F)o1)N1CCNC1=O`, with -32.1%; and `CCOc1ccc(CCNC(=O)COC(=O)Cn2nc(C)c([N+](=O)[O-])c2C)cc1OCC`, with 3.43%; and `CC1(NC(=O)COc2ccccc2-c2ccccc2)CCS(=O)(=O)C1` (centres unmarked), with -18.9%.
In the case of `CCOC(=O)N1CCN(C(=O)CN(c2ccc(OCc3ccccc3)cc2)S(C)(=O)=O)CC1` it was -34.4%.
In the case of `Cl.O=C(Nc1ccnc(=O)[nH]1)c1sc2ccccc2c1Cl`, the “hERG current change (%, negative = inhibition) at 10uM” value came out at 30.6%.
In the case of `CCOC(=O)C1=NNC(C(=O)c2ccc(Cl)cc2)C1c1ccc(OC)cc1` (centres unmarked) it was -5.47%; in that of `O=C(Nc1ccccc1C(=O)O)c1cc(S(=O)(=O)N2CCOCC2)cs1`, -66.4%.
Then `C=CCn1c(SCC(=O)NCc2cccs2)nnc1C1CCCCC1`, with 3.81%; and `Cc1ccc(-n2c(O)c(C=NCc3ccccn3)c(=O)[nH]c2=S)cc1`, with 2.66%; and `COc1cc(/C=N/NC(=O)c2[nH]nc3c2CCc2ccccc2-3)ccc1O`, with -10.1%.
In the case of `COc1ccc(CCNC(=O)C2CCN(C(=O)c3ccc(Br)cc3)CC2)cc1`, the “hERG current change (%, negative = inhibition) at 10uM” value is reported as -45.1%.
Then `Cn1ncc([N+](=O)[O-])c1C(=O)Nc1ccc(-c2nc3ccccc3o2)cc1`, with 29%; and `Cc1ccc(C)c(OCC(=O)Nc2ccncc2)c1`, with 7.11%.
Then `Cc1ccc(Cl)cc1NC(=O)c1ccc(CSc2nnnn2C)cc1`, with -14.3%.
Then `CC1=NN(c2ccc(C)c(C)c2)C(=O)C1C(c1cccc(O)c1)C1C(=O)N(c2ccc(C)c(C)c2)N=C1C` (centres unmarked), with 29.4%; and `O=C(COc1ccccc1)Nc1cc(Cl)ccc1Cl`, with 29.3%.
Take `O=C(CCC1CCCN(C(=O)CCC(F)(F)F)C1)NCc1ccc(F)c(F)c1` (centres unmarked): the “hERG current change (%, negative = inhibition) at 10uM” value is listed as 4.86%.
In the case of `CN(C)C(=O)CSc1nnc(-c2ccncc2)n1Cc1ccco1` it was 22.2%.
In the case of `O=C(c1cc(COc2c(F)cccc2F)on1)N1CCSCC1` it was -14%.
In the case of `CC(C)OC(=O)/C(=C/c1cccnc1)NC(=O)c1ccccc1` it was -1.48%; in that of `COc1ccc(-c2oc3ccc(-c4ccc(OC)nc4)cc3c2-c2ccc(OC)cc2)cc1`, -5.37%.
For the molecule `C/C(=C/C=N/Nc1nc(N2CCCCC2)nc(N2CCCCC2)n1)c1ccccc1`, the “hERG current change (%, negative = inhibition) at 10uM” value is 1.73%.
With `COc1ccc(Cc2nn3c(-c4cc(OC)c(OC)c(OC)c4)nnc3s2)cc1`, the “hERG current change (%, negative = inhibition) at 10uM” value is on record as -22.6%.
In the case of `O=C(c1c[nH]c2ccccc12)N1CCN(Cc2ccccc2)CC1` it was -13.5%; in that of `COC(=O)Cc1cc(=O)n2[nH]cnc2n1`, 15.9%; in that of `O=S(=O)(NC1CC1)c1ccc(S(=O)(=O)N2CCC3(CC2)OCCO3)cc1`, 8.38%.
Take `COc1ccc(CCN2CCCC(CN(C)Cc3cc(OC)c(OC)c(OC)c3)C2)cc1` (centres unmarked): the “hERG current change (%, negative = inhibition) at 10uM” value is -51.6%.
Regarding `Cc1cc(C)n2c(SCc3ccc(Br)cc3)nnc2n1`, the “hERG current change (%, negative = inhibition) at 10uM” value is -33.5%.
In the case of `CCC(C)c1ccc(NC(=O)Nc2cccnc2)cc1` (centres unmarked) it was -9.17%.
`C#CCOCCOCCOCCNc1nc(N2CCN(C(=O)[C@H](CCCCN)n3cc(C(N)CO)nn3)CC2)nc(N2CCN(C(=O)[C@H](CCCCN)n3cc(C(N)COC(=O)C(F)(F)F)nn3)CC2)n1.Cl` (some centres unmarked): the “hERG current change (%, negative = inhibition) at 10uM” value was 0.812%.
In the case of `CC1c2ccccc2N(NC(=O)Cc2ccccc2)C1C` (centres unmarked) it was 1.57%; in that of `CCC(C)c1ccccc1NC(=O)C(C)NCCN(C)C.O=C(O)C(=O)O` (centres unmarked), 10.3%; in that of `N#CCC(=O)N/N=C/c1cc([N+](=O)[O-])ccc1N1CCCC1`, -6.93%.
Turning to `Cc1cc(OCCCCOc2ccc(C#N)cc2)ccc1[N+](=O)[O-]`, the “hERG current change (%, negative = inhibition) at 10uM” value is listed as -47.2%.
With `CCOC(=O)C1CCN(CC(=O)N2C(C)CCCC2C)CC1.O=C(O)C(=O)O` (centres unmarked), the “hERG current change (%, negative = inhibition) at 10uM” value is given as 3.55%.
In the case of `O=C(CN1CCOCC1)N1CCN(S(=O)(=O)c2ccccc2)C1c1ccccc1` (centres unmarked) it was -10.2%.
In the case of `Cc1cc(=O)[nH]c(N/N=C/c2c[nH]c3ccccc23)n1` it was 7.36%.
In the case of `Cc1cc(C)nc(N2CCC(C(=O)NNC(=O)Cc3ccccc3)CC2)n1` it was 8.85%; in that of `COc1ccc(C(=O)OC(C)C(=O)Nc2cc(C(F)(F)F)ccc2Cl)c(OC)c1OC` (centres unmarked), -13.4%; in that of `O=c1c(-c2ccccc2)c(O)c2ccccc2n1-c1ccccc1`, 6.56%.
Consider `Cn1c(O)c(C=NCCN2CCNCC2)c(=O)n(C)c1=O`, for which the “hERG current change (%, negative = inhibition) at 10uM” value is reported as 11.2%.
In the case of `Cc1ccc(S(=O)(=O)N(C)CCCC(=O)n2nc(C)cc2C)cc1` it was -4.63%.
In the case of `O=C(O)c1ccc2c(c1)C(=O)N(c1ccc(/C=C/C(=O)c3ccccc3)cc1)C2=O` it was 14.6%; in that of `CCn1c(COc2ccccc2C)nnc1SCC(=O)CC(=O)Nc1ccccc1`, -19.8%; in that of `O=C(Cn1nnc(-c2ccc(Cl)cc2)n1)NCC1CCCCC1`, 1.49%.
Take `CC(C)Oc1ccc(CN2CCCC(CO)(Cc3ccc(F)cc3)C2)cc1` (centres unmarked): the “hERG current change (%, negative = inhibition) at 10uM” value is on record as -58.7%.
Then `O=C(Nc1ccc(F)cc1)Nc1ccc(N2CCOCC2)c2nonc12`, with 6.45%; and `Cn1c(SCC(=O)NC2CCCCC2)nnc1-c1ccncc1`, with 13.2%; and `CCN(CC(=O)Nc1ccc(N2CCOCC2)cc1)C(=O)Cc1ccccc1`, with 3.76%.
In the case of `Cc1ccc2c(CC(=O)OCc3cc(=O)n4c(n3)sc3ccccc34)coc2c1` it was 5.05%; in that of `Cc1ccc2nc(N(CCCN(C)C)C(=O)c3ccc(S(=O)(=O)N4CCCCCC4)cc3)sc2c1.Cl`, -58%; in that of `CCOC(=O)c1cccnc1NC(=O)c1ccccc1`, 11.6%.
In the case of `O=C(Nc1ccncc1)c1cccc(F)c1` it was -1.23%; in that of `COc1ccc(N(CC(=O)NCc2ccccc2)S(=O)(=O)c2c(C)noc2C)cc1`, 2.7%; in that of `COc1ccc(C(=O)COC(=O)CNC(=O)C2CCCCC2)c(OC)c1`, -11%.
For the molecule `O=C(Oc1ccc(N(Cc2cccs2)C2=NS(=O)(=O)c3ccccc32)cc1)c1ccccc1F`, the “hERG current change (%, negative = inhibition) at 10uM” value is -1.66%.
